Lines with a small IC50 respond at low doses; fits outside the tested doses are given as limits. AUC, from the same fit, is the share of area under the viability curve across the 256-fold dose range; it is 1 without any effect and falls as sensitivity rises. For some of these results: A top dose marked as inferred comes from the curve model; the source does not state it. For some of these results: Where an entry number is given, a second screen of the drug exists; the two often differ.

The record followed here is the supplement of paper PMC4967469.

Compound in the first test: O=C(c1cc(Cc2n[nH]c(=O)c3ccccc23)ccc1F)N1CCN(C(=O)C2CC2)CC1 [Olaparib]
The test is described as follows: Viability of human cancer cell lines after 72 h of drug (GDSC screen). Conditions: top dose 10 µM; screen: GDSC drug entry 1495. As to the method:
(§1)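 Human cancer cell lines in 384-well plates, medium with 10% serum, drug for 72 h over a 256-fold dose range (nine 2-fold or five 4-fold steps up to the top dose). Adherent lines were fixed and stained with the nucleic acid dye Syto60, suspension lines read with resazurin; signal relative to control wells, capped at 0 and 100%. One two-parameter sigmoid per drug and line, fitted in a mixed model over all curves with the slope shared within a line.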
With SAT (head and neck, adherent), the AUC came to 0.884 and the half-maximal inhibitory concentration (IC50) (as a rule, the concentration that inhibits the measured activity by half) is more than 10 µM.

Take SK-MEL-24 (melanoma, adherent): the AUC was found to be 0.929 and the IC50 was more than 10 µM.

As to SKN-3 (head and neck, adherent), the AUC stood at 0.932 and the IC50 was more than 10 µM.

Regarding SW756 (cervix, adherent), the AUC was found to be 0.934 and the IC50 was more than 10 µM.

On to SW1990 (pancreas, adherent), for which the AUC is 0.916 and the IC50 is more than 10 µM.

As to U-266 (myeloma, semi-adherent), the AUC amounted to 0.962 and the IC50 was more than 10 µM.

UM-UC-3 (bladder, adherent): the AUC was 0.906 and the concentration for half-maximal inhibition (IC50) is more than 10 µM.

In the case of UMC-11 (lung carcinoid, adherent), the AUC was found to be 0.957 and the half-maximal inhibitory concentration (IC50) was more than 10 µM.

Compound in another test: Cc1ccc(-n2nc(C(C)(C)C)cc2NC(=O)Nc2ccc(OCCN3CCOCC3)c3ccccc23)cc1 [BIRB 0796]
Described as above. Conditions: top dose 10 µM; top dose inferred. On the procedure:
as §1
Take BICR22 (head and neck, adherent): the AUC came to 0.9 and the IC50 was more than 10 µM.

Turning to JHOS-4 (ovary, adherent), the AUC was determined as 0.909 and the IC50 was more than 10 µM.

Take JHU-011 (head and neck, adherent): the AUC is 0.954 and the concentration for half-maximal inhibition (IC50) is more than 10 µM.

For the cell line “KNS-62 (lung squamous cell carcinoma, adherent)”, the AUC was found to be 0.915 and the IC50 is more than 10 µM.

MDA-MB-436 (breast, adherent): the AUC was 0.923 and the half-maximal inhibitory concentration (IC50) is more than 10 µM.

Turning to “NCI-H838 (lung adenocarcinoma, adherent)”, the AUC was found to be 0.957 and the IC50 is more than 10 µM.

Take OAW-42 (ovary, adherent): the AUC worked out at 0.985 and the IC50 was more than 10 µM.

Turning to OCUM-1 (stomach, adherent), the AUC is 0.929 and the concentration for half-maximal inhibition (IC50) is more than 10 µM.

Turning to OSC-19 (head and neck, adherent), the AUC worked out at 0.983 and the 50% inhibitory concentration (IC50) was more than 10 µM.

On to OVCAR-5 (ovary, adherent), for which the AUC turned out to be 0.951 and the half-maximal inhibitory concentration (IC50) is more than 10 µM.

Take RCC-MF (kidney, adherent): the AUC was determined as 0.844 and the IC50 is more than 10 µM.

As to SAT (head and neck, adherent), the AUC came to 0.965 and the half-inhibitory concentration (IC50) was more than 10 µM.

For SKN-3 (head and neck, adherent), the AUC came out at 0.978 and the 50% inhibitory concentration (IC50) is more than 10 µM.

In the case of SW756 (cervix, adherent), the AUC was 0.823 and the IC50 was determined as 7.44 µM.

Compound in a further test: O=C1NC(=O)c2c1c(-c1ccccc1Cl)cc1[nH]c3ccc(O)cc3c21 [Wee1 inhibitor 681640]
The description is as above. To be noted: top dose 2 µM; top dose inferred. On the procedure: as §1
As to C3A (liver, adherent), the AUC stood at 0.982 and the concentration for half-maximal inhibition (IC50) was more than 2 µM.

As to HeLa (cervix, adherent), the AUC is 0.988 and the IC50 is more than 2 µM.

Take IGR-37 (melanoma, adherent): the AUC was found to be 0.861 and the IC50 worked out at 1.46 µM.

Take KYSE-510 (oesophagus, adherent): the AUC came to 0.927 and the IC50 is more than 2 µM.

In the case of MCF7 (breast, adherent), the AUC came to 0.909 and the IC50 was more than 2 µM.

On to MDA-MB-231 (breast, adherent), for which the AUC turned out to be 0.929 and the 50% inhibitory concentration (IC50) was more than 2 µM.

Turning to ME-180 (cervix, adherent), the AUC came out at 0.94 and the concentration for half-maximal inhibition (IC50) is more than 2 µM.

On to “NCI-H1703 (lung adenocarcinoma, adherent)”, for which the AUC was 0.956 and the IC50 is more than 2 µM.

For PC-3 (prostate, adherent), the AUC turned out to be 0.954 and the IC50 was more than 2 µM.

Turning to U-266 (myeloma, semi-adherent), the AUC is 0.869 and the IC50 was more than 2 µM.

Compound in a further test: Cc1cccc(-c2[nH]c(C(C)(C)C)nc2-c2ccc3nccnc3c2)n1 [SB-525334]
The test is described as above. Conditions: top dose 20 µM; top dose inferred. On the procedure:
as §1
As for ACHN (kidney, adherent), the AUC is 0.941 and the IC50 is more than 20 µM.

AN3-CA (endometrium, adherent): the AUC is 0.95 and the IC50 is more than 20 µM.

Regarding BICR22 (head and neck, adherent), the AUC was determined as 0.983 and the 50% inhibitory concentration (IC50) is more than 20 µM.

For the cell line C3A (liver, adherent), the AUC amounted to 0.988 and the IC50 was more than 20 µM.

With CAKI-1 (kidney, adherent), the AUC worked out at 0.935 and the IC50 is more than 20 µM.

Take Daoy (medulloblastoma, adherent): the AUC is 0.983 and the half-maximal inhibitory concentration (IC50) is more than 20 µM.

For the cell line EFM-19 (breast, adherent), the AUC stood at 0.793 and the half-inhibitory concentration (IC50) turned out to be 15.1 µM.

As for HMV-II (melanoma, adherent), the AUC is 0.853 and the IC50 is more than 20 µM.

In the case of “HOP-92 (large cell lung carcinoma, adherent)”, the AUC was 0.979 and the half-inhibitory concentration (IC50) was more than 20 µM.

For the cell line HeLa (cervix, adherent), the AUC worked out at 0.969 and the half-maximal inhibitory concentration (IC50) is more than 20 µM.

Take IGR-37 (melanoma, adherent): the AUC came to 0.743 and the IC50 worked out at 5.75 µM.

Take JHH-6 (liver, adherent): the AUC worked out at 0.962 and the 50% inhibitory concentration (IC50) is more than 20 µM.

For JHU-011 (head and neck, adherent), the AUC came out at 0.986 and the IC50 is more than 20 µM.

Turning to KYSE-510 (oesophagus, adherent), the AUC is 0.975 and the IC50 was more than 20 µM.

On to M14 (melanoma, adherent), for which the AUC came out at 0.849 and the IC50 turned out to be 16.3 µM.

For the cell line MCF7 (breast, adherent), the AUC stood at 0.986 and the concentration for half-maximal inhibition (IC50) was more than 20 µM.

For MDA-MB-231 (breast, adherent), the AUC turned out to be 0.986 and the concentration for half-maximal inhibition (IC50) is more than 20 µM.

As for MDA-MB-436 (breast, adherent), the AUC was 0.902 and the half-maximal inhibitory concentration (IC50) was more than 20 µM.

Take ME-180 (cervix, adherent): the AUC worked out at 0.867 and the IC50 worked out at 19.4 µM.

Regarding MKN45 (stomach, adherent), the AUC amounted to 0.89 and the half-inhibitory concentration (IC50) was more than 20 µM.

With Mewo (melanoma, adherent), the AUC turned out to be 0.94 and the half-maximal inhibitory concentration (IC50) is more than 20 µM.

On to “NCI-H838 (lung adenocarcinoma, adherent)”, for which the AUC is 0.986 and the IC50 was more than 20 µM.

On to “NCI-H1703 (lung adenocarcinoma, adherent)”, for which the AUC worked out at 0.971 and the concentration for half-maximal inhibition (IC50) is more than 20 µM.

Regarding “NCI-H2029 (small cell lung carcinoma, adherent)”, the AUC amounted to 0.985 and the IC50 was more than 20 µM.

Consider OAW-42 (ovary, adherent), for which the AUC is 0.978 and the 50% inhibitory concentration (IC50) is more than 20 µM.

Regarding OCUM-1 (stomach, adherent), the AUC is 0.987 and the IC50 is more than 20 µM.

On to OSC-19 (head and neck, adherent), for which the AUC was determined as 0.952 and the IC50 was more than 20 µM.

In the case of OVCAR-5 (ovary, adherent), the AUC was 0.953 and the concentration for half-maximal inhibition (IC50) was more than 20 µM.

As to PA-TU-8988T (pancreas, adherent), the AUC stood at 0.979 and the IC50 is more than 20 µM.

Take PANC-08-13 (pancreas, adherent): the AUC turned out to be 0.912 and the IC50 is more than 20 µM.

On to PC-3 (prostate, adherent), for which the AUC worked out at 0.81 and the 50% inhibitory concentration (IC50) amounted to 13.4 µM.

In the case of RCC-MF (kidney, adherent), the AUC amounted to 0.889 and the concentration for half-maximal inhibition (IC50) was more than 20 µM.

Take RMG-I (ovary, adherent): the AUC was 0.691 and the IC50 came out at 4.74 µM.
